Measurements: PubChem BioAssay AID360 (National Center for Advancing Translational Sciences (NCATS), 2006)
In all, about 48,000 compounds went through this assay and about 550 (1.1%) were called active. Inconclusive results (about 4%) are left out. No stated cut-off is given here; in the data, active means potency below about 15 µM; inconclusive means mostly about 16 µM to 33 µM; inactive means weaker than that. The list shows a part of the results.

biological target: Lysosomal acid glucosylceramidase (Homo sapiens) (UniProt P04062); assay: Glucocerebrosidase; conditions: purified enzyme, resorufin glucoside fluorescence (screen aimed at inhibitors), 20 min;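 further: the screen sought inhibitors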
Method in brief: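 Wild-type enzyme at 0.2 nM final in 50mM citric acid/KH2PO4, 10mM sodium taurocholate, 0.01% tween-20, pH 5.9, with resorufin beta-D-glucopyranoside at 30 uM final. Compounds titrated, 20 min at RT, red fluorescence read; AC50 from titration.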
Potency means the concentration at half of the fitted maximal effect.

UniProt P04062, sequence (P04062 whole entry, looked up): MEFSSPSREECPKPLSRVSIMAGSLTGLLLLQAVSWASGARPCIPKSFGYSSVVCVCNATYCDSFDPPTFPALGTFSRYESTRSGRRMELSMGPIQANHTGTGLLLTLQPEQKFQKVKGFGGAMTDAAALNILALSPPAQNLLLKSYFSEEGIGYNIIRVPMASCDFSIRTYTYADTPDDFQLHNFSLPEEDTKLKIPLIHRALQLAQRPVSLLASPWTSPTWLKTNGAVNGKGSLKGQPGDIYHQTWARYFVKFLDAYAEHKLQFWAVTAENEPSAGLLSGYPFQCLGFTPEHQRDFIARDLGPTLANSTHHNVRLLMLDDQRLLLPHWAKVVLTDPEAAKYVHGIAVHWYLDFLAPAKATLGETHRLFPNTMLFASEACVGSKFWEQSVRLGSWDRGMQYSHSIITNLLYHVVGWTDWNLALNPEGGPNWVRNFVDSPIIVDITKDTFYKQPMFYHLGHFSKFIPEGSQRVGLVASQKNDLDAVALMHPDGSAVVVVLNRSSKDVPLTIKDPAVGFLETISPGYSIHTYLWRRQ

Potency, inactive:
CCOc1ccc(-n2nc(C(=O)NCCOC)c3ccccc3c2=O)cc1 > 76.9 µM
CCCn1cnc2c(c1=O)c1nc3ccccc3nc1n2Cc1ccccc1OC > 76.9 µM
Cc1cccc(OCC(O)Cn2c(NCCCOC(C)C)nc3c2c(=O)[nH]c(=O)n3C)c1 (stereo unspecified) > 76.9 µM
COc1ccccc1C(=O)OCC(=O)Nc1ccc(OC(F)F)cc1 > 76.9 µM
Cc1ccc(-c2cc(C(F)F)n3ncc(C(=O)NCc4ccco4)c3n2)cc1 > 76.9 µM
COc1cccc(-c2nnc(SCC(=O)OC(C)C)n2N)c1 > 76.9 µM
CCOc1ccccc1N1CCN(S(=O)(=O)c2cccc3nsnc23)CC1 > 76.9 µM
O=C(NCN1C(=O)C2C3C=CC(C3)C2C1=O)Nc1ccccn1 (stereo unspecified) > 76.9 µM
CCOC(=O)N1CCC(NC(=O)CCc2nc(-c3ccc(C)cc3)no2)CC1 > 76.9 µM
COC(=O)C1=C(C)N(c2ccc(OC)c(OC)c2)C(=O)C1 > 76.9 µM
O=C(N1CCN(c2ccccn2)CC1)N1c2ccccc2Sc2ccccc21
CCOC(=O)CNC(=O)Nc1cc(C(C)(C)C)nn1-c1ccccc1 > 76.9 µM
CC(C)CCn1c(=O)c2ccccc2n2c(CN3C(=O)NC4(CCC(C)CC4)C3=O)nnc12 (stereo unspecified) > 76.9 µM
C=CCn1c(SCc2cc(C(=O)OC)c(C)o2)nnc1-c1ccncc1 > 76.9 µM
CCc1ccc(NC(=O)c2cc(-c3ccc(OC)cc3)on2)cc1 > 76.9 µM
Cc1ccc(NC(=O)Cc2nn(C)c(=O)c3ccccc23)cc1F
CCN(CC)CCN1C(=O)C(O)=C(C(=O)c2sc(C)nc2C)C1c1cccnc1 (stereo unspecified) > 76.9 µM
O=S(=O)(NCc1ccccn1)c1ccc2c(c1)OCCO2 > 76.9 µM
O=C(CN1CCOCC1)N1CCc2ccccc2C(c2ccccc2)C1 (stereo unspecified) > 76.9 µM
COc1ccccc1NC(=O)Cn1cnc2sc(C(=O)NCc3ccco3)c(C)c2c1=O > 76.9 µM
CCOc1cc(NC(=O)C2CCCO2)c(OCC)cc1NC(=O)C1CC1 (stereo unspecified) > 76.9 µM
CC(C)NC(=O)c1n[nH]c(=O)c2ccccc12 > 76.9 µM
CS(=O)(=O)N1CCC(c2noc(-c3ccc(C(F)(F)F)cc3)n2)CC1 > 76.9 µM
CCOc1ccc(-n2cc(C(=O)N3CCC(C)CC3)c3cc(OC)c(OC)cc3c2=O)cc1 > 76.9 µM
Nn1c(SCC(=O)Nc2ccc(S(=O)(=O)N3CCCC3)cc2)nnc1C(F)(F)F > 76.9 µM
CC(C)n1c(SCC(=O)Nc2ccc3c(c2)OCO3)nc2c1c(=O)n(C)c(=O)n2C > 76.9 µM
COc1ccc(N(Cc2cc3ccccc3[nH]c2=O)C(=O)C2CCCO2)cc1 (stereo unspecified) > 76.9 µM
Cc1cccc2cc(CN(Cc3cccs3)Cc3nnnn3Cc3ccccc3)c(=O)[nH]c12 > 76.9 µM
O=C(CSc1nnc(C2CC2)n1Cc1ccccc1)N1CCN(S(=O)(=O)c2ccccc2)CC1 > 76.9 µM
COC(=O)c1ccc(CSc2nnnn2-c2ccc(C)cc2C)o1 > 76.9 µM
Cc1cccc(-c2c3c(=O)n(C)c(=O)n(C)c3c3c(C)cc(C)nn23)c1 > 76.9 µM
CCCCNC(=O)c1nnn(-c2ccccc2)c1N > 76.9 µM
Cc1ccc2cc3cc(C(=O)N4CCCCC4C)oc3nc2c1 (stereo unspecified) > 76.9 µM
Cc1ccccc1C(=O)Nc1cccc(-c2nnc(SCC(=O)O)n2C)c1 > 76.9 µM
C=C(C)COc1ccc(-c2nc(N)ncc2Oc2ccccc2OC)c(O)c1 > 76.9 µM
Cc1c(Nc2cc(=O)oc3ccccc23)c(=O)n(-c2ccccc2)n1C > 76.9 µM
COC(=O)c1[nH]c2ccc(C)cc2c1NC(=O)CCN1CCN(Cc2ccc3c(c2)OCO3)CC1 > 76.9 µM
CC(=O)NC(CCS(C)(=O)=O)C(=O)Nc1ccccc1C (stereo unspecified) > 76.9 µM
Cc1ccc(-c2nnn(CC(=O)NCC3COCCO3)n2)o1 (stereo unspecified) > 76.9 µM
CCCNC(=O)N1CCN(S(=O)(=O)c2ccc(C)c(C)c2)CC1 > 76.9 µM
CC(C)C1N=C2c3ccccc3N=C(SCC(=O)NCCc3ccc(S(N)(=O)=O)cc3)N2C1=O (stereo unspecified) > 76.9 µM
COc1ccccc1OCCn1c(CO)nc2ccccc21 > 76.9 µM
COc1ccc2c(=O)c3c(=O)n(Cc4ccco4)c(-c4ccccc4)nc3oc2c1 > 76.9 µM
CCCn1c(=O)c2ccccc2n2c(SCC(=O)/C(C#N)=C(\C)N)nnc12 > 76.9 µM
COCCNC(=O)CN(C(=O)CCC(=O)Nc1cc(C)on1)c1cccc(C)c1C > 76.9 µM
CCCC(=O)Nc1cc(-c2nn(C)c(=O)c3ccccc23)ccc1N1CCCCC1 > 76.9 µM
CCc1nnc(NC(=O)c2c(O)c3cccc4c3n(c2=O)CC4)s1 > 76.9 µM
Nn1c(SCC(=O)NC2CCCCC2)nnc1-c1ccc(Cl)cc1 > 76.9 µM
O=C(CCc1nc(-c2ccccc2F)no1)NCCN1CCOCC1 > 76.9 µM
COCCCn1cnc2oc3nc4ccccc4nc3c2c1=O > 76.9 µM
CCOC(=O)c1sc(NC(=O)c2cc3c(C)nn(-c4ccccc4)c3s2)nc1C > 76.9 µM
COC(=O)Cn1cnc2c(nnn2-c2ccc(C)cc2)c1=O > 76.9 µM
COc1ccccc1-c1cn(S(=O)(=O)c2ccc(F)cc2)nc1N > 76.9 µM
Cn1cc(CNC(=O)C2c3ccccc3Oc3ccccc32)cn1 > 76.9 µM
COC(=O)c1ccc(OCc2nc(N)nc(N3CCOCC3)n2)cc1 > 76.9 µM
C(=N\n1cncn1)/c1ccc(N2CCOCC2)cc1 > 76.9 µM
